Hit rate of the full screen: of about 420,000 compounds, about 64,000 (15%) were called active. The inconclusive results got no clear call from the source; some entries with a clear call stand among them for comparison. The call rests on the fitted dose curve; in most records, active means well fitted inhibition curve with a large enough effect; inconclusive means small, poorly fitted or top-dose-only effect; inactive means flat fitted curve, though single readings scatter. Potencies of inconclusive entries are left out as doubtful fits.
Assay: qHTS for Inhibitors of human tyrosyl-DNA phosphodiesterase 1 (TDP1): qHTS in cells in absence of CPT; further: nearly all actives have a fitted effect of over 55% in size
Details: DT40 Tdp1-/- hTDP1 cells, no CPT, ATP luminescence, 48 h; activity change, negative = growth inhibition: at 46.2 µM (top of the series) unless noted
In short: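 Cells were dispensed at 400 per well, compounds added by pin tool, plates incubated ≥48 hr at 37 °C, then CellTiter-Glo added for 30 min at room temperature before luminescence reading. Line: DT40 Tdp1-/- complemented with hTDP1; camptothecin omitted.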
On the % scale 0 is the no-effect control and ±100 the full control effect; potency means the concentration at half of the fitted maximal effect; tags describe the fitted curve by direction and shape.

Compound	Potency	activity change, negative = growth inhibition
CN1CCN(NC(=O)c2cc(-c3cccc(Cl)c3)nc3ccccc23)CC1	active: 10.3 µM	–
CC(C)(C)[C@H]1COC(=O)[C@@H](Cc2ccc(F)cc2)C/C=C\C[C@@H](CC(=O)N[C@@H](CO)Cc2ccccc2)C(=O)N1	active: 18.4 µM	–
O=c1oc2ccccc2nc1/C=C(\O)c1ccccc1	inconclusive [inhibitor, partial curve, poor fit]	–
Cc1cc(NC(=O)CSc2nc(-c3cccnc3)ccc2C#N)no1	inconclusive [inhibitor, partial curve]	–
COc1ccc(-c2nn(-c3ccccc3)cc2C(=O)N/N=C/c2ccc([N+](=O)[O-])o2)cc1	inconclusive [inhibitor, single point]	–
O=C(CN1C(=O)c2ccccc2S1(=O)=O)NC1CCCCC1	–	inactive: 0.24%
O=C(Cc1ccccc1)NC1CCN(C(=O)c2ccc([N+](=O)[O-])cc2)CC1	–	inactive: -13.3%
CC(Oc1ccccc1)C(=O)Nc1ccc(OCc2cc(=O)n3ccsc3n2)cc1 (stereo unspecified)	inconclusive [inhibitor, single point]	–
Cc1cccc(C)c1C(=O)N[C@@H](Cc1ccccc1)C(=O)O	–	inactive: -1.7%
COc1cccc(C(=O)N2CCN(C(=O)c3cccc4ccccc34)CC2)c1OC	inconclusive [inhibitor, single point]	–
CCOC(=O)c1c(S(=O)(=O)N2CCCC(C(=O)Nc3cccc(C#N)c3)C2)c(C)n(C)c1C (stereo unspecified)	inconclusive [inhibitor, single point]	–
CC(C)(C)c1csc(NC(=O)Cn2c(=O)oc3ccccc32)n1	inconclusive [inhibitor, single point]	–
COc1ccc(C2NS(=O)(=O)N=C2N)cc1 (stereo unspecified)	active: 23.1 µM	–
CCCCCc1ccc(OCCCC[n+]2ccccc2)c(CCCCC)c1	active: 2.59 µM	–
Cc1ccccc1CNC(=O)c1cccc(NC(=O)N2CCSc3ncccc32)c1	active: 16.4 µM	–
COC(=O)[C@@H](Cc1ccccc1)NC(=O)[C@H]1CCC(=O)N1C(=O)OCc1ccccc1	–	inactive: -5.43%
CN(C(=O)COC(=O)/C=C/c1ccc(C(F)(F)F)cc1)c1c(N)n(Cc2ccccc2)c(=O)[nH]c1=O	active: 6.51 µM	–
CCCc1nnc(NC(=O)C2CCCO2)s1 (stereo unspecified)	–	inactive: -1.23%
CC(=O)Nc1ccc(C(=O)N2CCc3cc4c(cc3C2C)OCCCO4)cc1 (stereo unspecified)	active: 18.4 µM	–
O=C(OCC(=O)N1CCN(c2ccccc2)CC1)C1CCCN1S(=O)(=O)c1ccc(Cl)cc1 (stereo unspecified)	active: 20.6 µM	–
Cc1cc(C)c(NC(=O)Nc2ccccc2C)c(Cl)c1	–	inactive: 11.5%
Cc1ccc(S(=O)(=O)Nc2ccc(-n3cnnn3)cc2)c(C)c1	inconclusive [inhibitor, single point]	–
N#CC1=C(SCC(=O)c2cc3ccccc3oc2=O)NC(=O)C(C#N)C12CCCC2 (stereo unspecified)	inconclusive [inhibitor, single point]	–

Compound	Potency	activity change, negative = growth inhibition
COc1ccc2c(c1)CCCC21NC(=O)N(CC(=O)N2CC(C)OC(C)C2)C1=O (stereo unspecified)	–	inactive: 6.02%
COc1ccc(C(=O)/C(Br)=C\C(=O)O)cc1	inconclusive [inhibitor, single point]	–
NC(=O)NC(=O)CSc1nc2sc(-c3ccccc3)cc2c(=O)n1-c1ccccc1	inconclusive [inhibitor, single point]	–
COc1cc(Nc2nc3ccccc3n3nnnc23)cc(OC)c1OC	active: 9.2 µM	–
CSc1ccccc1-c1ccc2nccn2c1	inconclusive [inhibitor, single point]	–
Cc1cc2c(cc1S(=O)(=O)N(C)CC(=O)Nc1ccc(C#N)cc1)OCC(=O)N2	inconclusive [inhibitor, partial curve]	–
O=C(Nc1cccnc1)c1cccc(S(=O)(=O)Nc2cccc(Cl)c2)c1	inconclusive [inhibitor, partial curve]	–
CN1CCN([C@H]2CS(=O)(=O)N[C@@H]2COCc2ccccc2)CC1	–	inactive: 4.29%
CCNC(=O)c1cc2c(c(-c3cccc(-c4ccccc4F)c3)n1)[C@H](CCO)N(C(=O)CC)C2	active: 5.8 µM	–
Cc1ccc(S(=O)(=O)c2cn(CC(=O)Nc3ccccc3C)c3cc4c(cc3c2=O)OCO4)cc1	–	inactive: -3.92%
CCCCN(CCCC)c1cc(C)nc(-c2ccccc2O)n1	inconclusive [inhibitor, single point]	–
CCOc1ccc(CC(=O)Nc2c(C(=O)Nc3ccc(OC)cc3OC)oc3ccccc23)cc1	inconclusive [inhibitor, single point]	–
O=C(O)c1ccc(OS(=O)(=O)c2ccc(Cl)s2)cc1	–	inactive: 6.4%
CCN(CC)CCN(Cc1cc2cc(C)cc(C)c2[nH]c1=O)C(=S)NCc1ccco1	active: 23.1 µM	–
O=C(CCCOc1ccc(Cl)cc1Cl)Nc1ccncc1	inconclusive [inhibitor, single point]	–
COc1ccc(CCNC(=O)CSc2nc(O)c(CC(C)C)c(=O)[nH]2)cc1OC	–	inconclusive: -6.6% [inhibitor]
Cc1cc(=O)n(C)c(=O)n1CCCCOc1ccc([N+](=O)[O-])cc1	inconclusive [inhibitor, single point]	–
Cc1ccc(CNC(=O)CCc2ccc(S(=O)(=O)NCC(C)C)cc2)cc1	inconclusive [inhibitor, single point]	–
CC(=O)Nc1ccc(-c2cc(C(=O)O)c3ccccc3n2)cc1	–	inactive: 25.2%
NC1=NC[C@H](Cc2ccccc2)N1CCCCC1CCCCC1	active: 5.17 µM	–
COc1ccc(-c2nc3cc(C)ccn3c2NC(=O)c2ccc(F)cc2)cc1	inconclusive [inhibitor, single point]	–
CCc1nc2ccccc2n1CC(O)COCC1CC=CCC1 (stereo unspecified)	inconclusive [inhibitor, single point]	–
COc1ccccc1/C=C/C(=O)Nc1cccc(S(=O)(=O)NC2=NCCCCC2)c1	inconclusive [inhibitor, single point]	–

Reference: PubChem BioAssay AID686978 (National Center for Advancing Translational Sciences (NCATS), 2013)
